Single values of this set are uncertain.
Assay: amyloid nucleation score relative to library mode (yeast Sup35 reporter selection) (log enrichment difference); higher = more amyloid nucleation; sequences are the first 22 residues of the Bri2 peptide extended by up to 12 random residues
Conditions: random library (experiment): 1;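 active = nucleation score significantly above 0 at FDR 0.05; inactive = not significantly above 0 or absent from output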
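Further: [psi-pin-] Saccharomyces cerevisiae expressing SupN fusions, induced by 100 µM Cu2SO4, selected 7 d at 30 °C without adenine and uracil, scored by deep sequencing of output versus input.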

Row | Sequence | amyloid nucleation score
1 | EASNCFAIRHFENKFAVETLICNLIALVACATRL | 3.26
2 | EASNCFAIRHFENKFAVETLICNLKFNDMTACLC | 5.5
3 | EASNCFAIRHFENKFAVETLICNLKQILLFYSFP | inactive
4 | EASNCFAIRHFENKFAVETLICNLLSCRDLFNNL | 8.19
5 | EASNCFAIRHFENKFAVETLICNLMSTSNCQLVG | inactive
6 | EASNCFAIRHFENKFAVETLICNLNSGGRKTVSR | 4.81
7 | EASNCFAIRHFENKFAVETLICNLRFFDVFFVPS | 6.95
8 | EASNCFAIRHFENKFAVETLICNLRYGRRERLRC | inactive
9 | EASNCFAIRHFENKFAVETLICNLRYKWCGGIWM | inactive
10 | EASNCFAIRHFENKFAVETLICNLSHSFDMIGSA | 5.17
11 | EASNCFAIRHFENKFAVETLICNLVCENMMREIL | 3.96
12 | EASNCFAIRHFENKFAVETLICNLVRTAVVFVPA | -0.0479
13 | EASNCFAIRHFENKFAVETLICNLVSIFRWSYYW | inactive
14 | EASNCFAIRHFENKFAVETLICNLVTTSPQPKQW | 2.82
15 | EASNCFAIRHFENKFAVETLICNLVVLLSSNGRE | 7.17
16 | EASNCFAIRHFENKFAVETLICNLVVRKGNMVGT | -0.265
17 | EASNCFAIRHFENKFAVETLICNLWRFR | inactive
18 | EASNCFAIRHFENKFAVETLICNM | 3.05
19 | EASNCFAIRHFENKFAVETLICNMACLAKPSVPW | 6.7
20 | EASNCFAIRHFENKFAVETLICNMIHVRHDSCRL | inactive
21 | EASNCFAIRHFENKFAVETLICNMLCNNTRLY | 5.86
22 | EASNCFAIRHFENKFAVETLICNMLLISVVNWFR | 0.609
23 | EASNCFAIRHFENKFAVETLICNMNEI | 1.25
24 | EASNCFAIRHFENKFAVETLICNMRVLCWQPVGD | 4.52
25 | EASNCFAIRHFENKFAVETLICNMSWSHSICALR | inactive
26 | EASNCFAIRHFENKFAVETLICNMWSCAKRGGKG | 4.6
27 | EASNCFAIRHFENKFAVETLICNN | -0.338

Row | Sequence | amyloid nucleation score
28 | EASNCFAIRHFENKFAVETLICNNACSCSGSVAQ | 8.68
29 | EASNCFAIRHFENKFAVETLICNNAFTLIGVGVR | inactive
30 | EASNCFAIRHFENKFAVETLICNNGRKCVMPDWG | inactive
31 | EASNCFAIRHFENKFAVETLICNNISRPHSQAST | inactive
32 | EASNCFAIRHFENKFAVETLICNNLRVVVNGMWG | 3.43
33 | EASNCFAIRHFENKFAVETLICNNLSSEMRLAET | -0.211
34 | EASNCFAIRHFENKFAVETLICNNNRFLCCSVSV | 6.31
35 | EASNCFAIRHFENKFAVETLICNNRVHC | inactive
36 | EASNCFAIRHFENKFAVETLICNNV | inactive
37 | EASNCFAIRHFENKFAVETLICNP | inactive
38 | EASNCFAIRHFENKFAVETLICNPRAPDARFFFK | 2.88
39 | EASNCFAIRHFENKFAVETLICNPSRK | inactive
40 | EASNCFAIRHFENKFAVETLICNQGNPDKHRESP | inactive
41 | EASNCFAIRHFENKFAVETLICNQPKSAKKVYGR | inactive
42 | EASNCFAIRHFENKFAVETLICNQRFMRYDSNIW | 3.96
43 | EASNCFAIRHFENKFAVETLICNR | inactive
44 | EASNCFAIRHFENKFAVETLICNRCAGRGPGKEG | 0.796
45 | EASNCFAIRHFENKFAVETLICNRCKYDQCELRA | inactive
46 | EASNCFAIRHFENKFAVETLICNRDAL | inactive
47 | EASNCFAIRHFENKFAVETLICNRFRTWC | inactive
48 | EASNCFAIRHFENKFAVETLICNRGGWFNGESRR | 3.68
49 | EASNCFAIRHFENKFAVETLICNRGILLCSVVIR | inactive
50 | EASNCFAIRHFENKFAVETLICNRGPRGRRTEVQ | inactive
51 | EASNCFAIRHFENKFAVETLICNRGRVQRSLVNS | inactive
52 | EASNCFAIRHFENKFAVETLICNRIGRLRTCRWG | inactive
53 | EASNCFAIRHFENKFAVETLICNRLGNLSNRIGL | inactive

Same assay, conditions: random library (experiment): 2

Row | Sequence | amyloid nucleation score
54 | EASNCFAIRHFENKFAVETLICNLILGVVVSLLE | -0.0583
55 | EASNCFAIRHFENKFAVETLICNLIRCDSSDGPS | 6.99
56 | EASNCFAIRHFENKFAVETLICNLIRMTRMSIGS | 2.4
57 | EASNCFAIRHFENKFAVETLICNLKEQKARCHNH | inactive
58 | EASNCFAIRHFENKFAVETLICNLKSWLWDYGCV | 4.88
59 | EASNCFAIRHFENKFAVETLICNLKVSILHAVLE | inactive
60 | EASNCFAIRHFENKFAVETLICNLLKCGNHVINR | inactive
61 | EASNCFAIRHFENKFAVETLICNLN | 6.54
62 | EASNCFAIRHFENKFAVETLICNLPSIHWHDSYS | 6.66
63 | EASNCFAIRHFENKFAVETLICNLPSRK | -0.372
64 | EASNCFAIRHFENKFAVETLICNLSVDFLLYWVE | 0.19
65 | EASNCFAIRHFENKFAVETLICNLSVITMTEFAW | inactive
66 | EASNCFAIRHFENKFAVETLICNLVCGYHIRNSG | 5.33
67 | EASNCFAIRHFENKFAVETLICNLVLYFYGVTKP | 5.52
68 | EASNCFAIRHFENKFAVETLICNLWRCNYLICYL | inactive
69 | EASNCFAIRHFENKFAVETLICNMDMCSKVMFWG | 7.58
70 | EASNCFAIRHFENKFAVETLICNMFRICLYMV | 4.79
71 | EASNCFAIRHFENKFAVETLICNMFVELCCARLS | inactive
72 | EASNCFAIRHFENKFAVETLICNMHSAYICYFRQ | inactive
73 | EASNCFAIRHFENKFAVETLICNMKFARYGESRA | inactive
74 | EASNCFAIRHFENKFAVETLICNMKSR | inactive
75 | EASNCFAIRHFENKFAVETLICNMVGTVYGHPGA | 7.81

Row | Sequence | amyloid nucleation score
76 | EASNCFAIRHFENKFAVETLICNMVHYKLWHTLR | inactive
77 | EASNCFAIRHFENKFAVETLICNMWFVYTVVVYR | inactive
78 | EASNCFAIRHFENKFAVETLICNMYFCSKGSMRW | 7.69
79 | EASNCFAIRHFENKFAVETLICNNDKVLTYHGYQ | 4.75
80 | EASNCFAIRHFENKFAVETLICNNGLVAMQSCWS | 3.39
81 | EASNCFAIRHFENKFAVETLICNNLCHASWGRPG | 7.2
82 | EASNCFAIRHFENKFAVETLICNNLDMLCGAFKY | 7.76
83 | EASNCFAIRHFENKFAVETLICNNLISRRSSNN | inactive
84 | EASNCFAIRHFENKFAVETLICNNLPDKCRTRRE | 1.9
85 | EASNCFAIRHFENKFAVETLICNNLRYYGTTSYF | 3.19
86 | EASNCFAIRHFENKFAVETLICNNR | -0.131
87 | EASNCFAIRHFENKFAVETLICNNWPTFISFGNR | 8.26
88 | EASNCFAIRHFENKFAVETLICNPFMSYFECCRC | 6.08
89 | EASNCFAIRHFENKFAVETLICNPIKKFLYLRYW | -0.0198
90 | EASNCFAIRHFENKFAVETLICNPSMVVYMFFVD | 4.36
91 | EASNCFAIRHFENKFAVETLICNQ | inactive
92 | EASNCFAIRHFENKFAVETLICNQFIVYLALMRM | 2.31
93 | EASNCFAIRHFENKFAVETLICNQGVTYNYCCCR | 8.53
94 | EASNCFAIRHFENKFAVETLICNQSGVRYVVSVG | inactive
95 | EASNCFAIRHFENKFAVETLICNQTFRRRYCIVR | -0.365
96 | EASNCFAIRHFENKFAVETLICNRKCSLCFTVWS | inactive
97 | EASNCFAIRHFENKFAVETLICNRLCYMFRIVIG | inactive

Same assay, conditions: random library (experiment): 3

Row | Sequence | amyloid nucleation score
98 | EASNCFAIRHFENKFAVETLICNLKLTYC | 6.19
99 | EASNCFAIRHFENKFAVETLICNLM | 9.24
100 | EASNCFAIRHFENKFAVETLICNLMRDDRLLPKG | inactive
101 | EASNCFAIRHFENKFAVETLICNLPCVLYMRVGC | inactive
102 | EASNCFAIRHFENKFAVETLICNLSPTSSRSLSQ | 6.17
103 | EASNCFAIRHFENKFAVETLICNLSVYSPVGIRA | inactive
104 | EASNCFAIRHFENKFAVETLICNLTLVYGLVWNR | inactive
105 | EASNCFAIRHFENKFAVETLICNMTRKILRIKRL | inactive
106 | EASNCFAIRHFENKFAVETLICNMWVRHFGNGLY | 5.08
107 | EASNCFAIRHFENKFAVETLICNMYLFASLTCDS | 6.34
108 | EASNCFAIRHFENKFAVETLICNPDWPMAVTRVV | inactive
109 | EASNCFAIRHFENKFAVETLICNPNSTHVELPCC | inactive
110 | EASNCFAIRHFENKFAVETLICNPQNALVTLALV | inactive
111 | EASNCFAIRHFENKFAVETLICNPVIRSNTCWLY | inactive
112 | EASNCFAIRHFENKFAVETLICNQDLDTSHSAWE | inactive
113 | EASNCFAIRHFENKFAVETLICNQPVRGRQGGVW | inactive
114 | EASNCFAIRHFENKFAVETLICNQVHSFTDYVYM | 2.18
115 | EASNCFAIRHFENKFAVETLICNRALV | inactive
116 | EASNCFAIRHFENKFAVETLICNREGETVRVRLQ | inactive
117 | EASNCFAIRHFENKFAVETLICNRGVI | inactive
118 | EASNCFAIRHFENKFAVETLICNRKEYSWARCSM | 2.88
119 | EASNCFAIRHFENKFAVETLICNRKFSFRRNMCQ | inactive
120 | EASNCFAIRHFENKFAVETLICNRKVAGKRGADK | inactive
